Measurements: PMC4336329 (PLoS ONE, 2015)
Screen size: about 310,000 compounds; about 14,000 (4.5%) showed an effect of 50% or more. Effects have a minus sign here. This is one part of the list.

Target: human ether-à-go-go-related gene (hERG) potassium channel (human, UniProt Q12809)
Assay: primary screen, population patch clamp on CHO cells stably expressing hERG
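Also: peak tail current of the secondary pulse compared with the same well before compound.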

Sequence of human ether-à-go-go-related gene (hERG) potassium channel (Q12809 whole entry, looked up): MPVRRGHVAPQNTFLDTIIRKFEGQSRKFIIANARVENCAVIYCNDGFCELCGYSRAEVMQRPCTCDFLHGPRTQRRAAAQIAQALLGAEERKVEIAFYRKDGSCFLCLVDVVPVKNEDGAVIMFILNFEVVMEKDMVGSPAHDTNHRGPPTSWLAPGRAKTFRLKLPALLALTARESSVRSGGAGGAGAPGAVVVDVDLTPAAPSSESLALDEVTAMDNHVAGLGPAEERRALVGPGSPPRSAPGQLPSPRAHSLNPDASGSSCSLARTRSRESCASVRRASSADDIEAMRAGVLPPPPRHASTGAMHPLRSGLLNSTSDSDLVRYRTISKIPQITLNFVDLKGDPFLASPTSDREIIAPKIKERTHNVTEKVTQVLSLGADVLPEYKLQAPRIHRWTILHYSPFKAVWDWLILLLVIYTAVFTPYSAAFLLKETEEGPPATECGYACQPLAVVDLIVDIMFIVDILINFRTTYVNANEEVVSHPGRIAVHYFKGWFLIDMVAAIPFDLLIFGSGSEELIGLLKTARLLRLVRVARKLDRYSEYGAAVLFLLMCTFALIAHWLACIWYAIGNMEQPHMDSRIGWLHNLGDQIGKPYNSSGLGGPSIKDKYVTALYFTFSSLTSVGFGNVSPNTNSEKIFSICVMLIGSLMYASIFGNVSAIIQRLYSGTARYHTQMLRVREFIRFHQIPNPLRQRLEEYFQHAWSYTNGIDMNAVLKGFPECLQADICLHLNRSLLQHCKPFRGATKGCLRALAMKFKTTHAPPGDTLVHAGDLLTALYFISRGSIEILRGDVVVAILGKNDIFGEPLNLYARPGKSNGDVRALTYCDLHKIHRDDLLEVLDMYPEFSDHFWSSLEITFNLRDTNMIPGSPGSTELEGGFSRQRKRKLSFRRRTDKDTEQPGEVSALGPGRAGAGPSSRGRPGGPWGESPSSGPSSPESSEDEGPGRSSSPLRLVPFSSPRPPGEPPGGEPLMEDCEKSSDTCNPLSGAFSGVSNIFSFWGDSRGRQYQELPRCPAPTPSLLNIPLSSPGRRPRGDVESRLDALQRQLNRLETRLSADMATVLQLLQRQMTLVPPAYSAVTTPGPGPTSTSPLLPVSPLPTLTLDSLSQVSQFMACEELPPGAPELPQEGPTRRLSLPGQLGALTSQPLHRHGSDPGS

SMILES | hERG current change (%, negative = inhibition) at 10uM
Cc1nc(/C(N)=N/OC(=O)c2c(-c3ccccc3Cl)noc2C)cs1 | 11%
CN(C)CC1CCCCC1OC(=O)/C=C/c1ccc(Cl)cc1Cl.Cl (centres unmarked) | -32.4%
CCOC(=O)CC(=O)CSc1nc2ccc(C)cc2cc1C#N | -21.6%
CCOc1ccc(N(C)c2ccc(/C=C3/SC(=S)NC3=O)cc2)cc1 | 16.7%
COc1ccc(C(=O)/C=C(\N)C(F)(F)F)c(O)c1 | -1.25%
Cc1ccc(C)c(NC(=O)CN(C)C(=O)c2ccc(-c3cccc(C(F)(F)F)c3)o2)c1 | -5.55%
CC(C)(CSc1nncn1/N=C/c1ccco1)NS(=O)(=O)c1ccc(Cl)cc1 | -43.3%
CC(C)C[C@@H](COc1ccccc1)N1CCN(CCc2ccccc2)CCC1=O | -77.5%
On1c(-c2ccccc2)nc2ncccc21 | 0.151%
COC(=O)c1ccc2c(c1)sc(=NC(=O)CCS(=O)(=O)c1ccccc1)n2C | -16.6%
COCCNC(=O)/C=C/c1c(Cl)cccc1Cl | 2.43%
Cn1ccnc1C(=O)C1CCCN(Cc2cn[nH]c2-c2ccc(-c3ccccc3)cc2)C1 (centres unmarked) | -67.9%
CC(=O)Nc1ccc(S(=O)(=O)Nc2c(C)n(C)n(-c3ccccc3)c2=O)cc1 | -1.32%
C=C(C)CNc1cc(S(=O)(=O)N2CCOCC2)ccc1Oc1ccccc1 | -21.3%
O=C(COc1ccc([N+](=O)[O-])cc1)N1CCN(c2nnc(-c3ccccc3)c3ccccc23)CC1 | -66.5%
COc1ccc(N2CCN(C(CNC(=O)C3CCCCC3)c3ccco3)CC2)cc1 (centres unmarked) | 0.866%
CCn1c(CN2CCOCC2)nnc1SCC(=O)Nc1ccccc1Cl | 24.7%
Cc1cc(C)cc(-n2c(C)cc(/C=C3\C(=N)N4N=C(CC(C)C)SC4=NC3=O)c2C)c1 | 5.86%
C=CCN1C(=O)c2ccc(C(=O)N(CC)CC(=O)Nc3cc(Cl)ccc3C)cc2C1=O | -28.6%
O=C(CN=C1NC(=O)C(c2ccccc2)(c2ccccc2)N1)NCc1ccc(F)cc1 | 0.058%
CCOC(=O)CSc1nnc2cc(C)c3ccccc3n12 | -11.8%
CN(Cc1ccccc1)S(=O)(=O)c1cccs1 | -36.7%

SMILES | hERG current change (%, negative = inhibition) at 10uM
CNC(=O)c1cc2c(=O)n3cc(C)ccc3nc2n(C(C)C)c1=N | -77.1%
N#Cc1c(Nc2ccccc2)c(C=O)c[nH]c1=O | 8.77%
CCOc1cc(/C=C2/C(=N)N3C(=NC2=O)SN=C3S(C)(=O)=O)ccc1OC(=O)c1ccco1 | 16.3%
CN(CC(=O)NCCN1CCOCC1)S(=O)(=O)c1ccc(F)cc1 | 2.88%
CCCCCn1c(=S)[nH]c2cc(C(=O)N3CCN(C(=O)OCC)CC3)ccc2c1=O | 6.31%
Cc1c(NC(=O)c2cc3c(s2)-c2ccccc2OC3)cccc1[N+](=O)[O-] | 6.38%
CCCCn1c(N)c(N(CCOC)C(=O)C2CCN(C(=O)c3ccc(F)cc3)CC2)c(=O)[nH]c1=O | 18.1%
COc1ccc(NC(=O)c2cc3ccccc3o/c2=N\NS(=O)(=O)c2ccc(C)cc2)cc1 | -13.6%
Cc1ccc(N(CC(=O)NC2CCCC2)C(=O)CCC(=O)Nc2ccccn2)cc1 | -18.2%
O=C(C1CCN(S(=O)(=O)c2cccc3cccnc23)CC1)N1CCN(c2ccc(Cl)cc2)CC1 | -42.9%
Cc1cn(CC(=O)c2ccccc2)c2ccccc12 | 4.66%
O=C(c1ccccc1)c1cnc(-c2ccccc2)s1 | 35.8%
CSc1cccc(NC(=O)Cn2cnc(S(=O)(=O)N3CCCC3)c2)c1 | 21.5%
Cl.O=C(CNCc1ccco1)Nc1ccccc1-n1cccc1 | 7.04%
COCCNC(=O)CN1C(=O)NC2(CCOc3ccccc32)C1=O (centres unmarked) | 22.6%
Cc1ccccc1OCC(=O)Nc1nnc(S(=O)(=O)N2CCCC2)s1 | 53.4%
Cn1ccsc1=NC(=O)c1ccccc1F | 14.6%
COc1cc(OC)cc(C(=O)N[C@H](C(=O)OCC(=O)Nc2cccnc2Cl)C(C)C)c1 | -2%
CC1Cc2ccccc2N1S(=O)(=O)c1cccc(C(=O)N2Cc3ccccc3CC2C(N)=O)c1 (centres unmarked) | -13.3%
CC1CCCCN1C(=O)c1cc(-c2ccc3c(c2)OCO3)on1 (centres unmarked) | -6.82%
COc1ccccc1OCc1cc(C(=O)NCc2ccc(N3CCCC3=O)cc2)no1 | 13.4%
COc1ccccc1C(=O)Nc1cccc(C(=O)N2CCOCC2)c1 | 19.8%

SMILES | hERG current change (%, negative = inhibition) at 10uM
Cc1ccc(CN2CCN(Cc3cn[nH]c3-c3ccccc3)CC2CCO)o1 (centres unmarked) | -12.7%
O=C(c1ccc2c(c1)OCCO2)N1CCCCC1 | 12.8%
O=C(Nc1cc(Oc2ccccc2)cc([N+](=O)[O-])c1)C12CC3CC(C1)CC(n1cnc(Cl)n1)(C3)C2 | 13.9%
COc1ccc(CCN2CC(C(=O)NCCc3ccc(C(F)(F)F)cc3)CCC2=O)cc1 (centres unmarked) | -46.8%
NCCCC[C@H]1CN=C(N)N1CCc1cccc2ccccc12 | 1.08%
Cc1nc(-c2ccccc2OC(F)(F)F)[nH]c(=O)c1Cl | 7.36%
Fc1ccc(-c2csc3ncnc(Nc4ccc(N5CCOCC5)cc4)c23)cc1 | 17.6%
NC(=O)c1ccc(-c2nnc(Nc3ccc(S(N)(=O)=O)cc3)c3ccccc23)cc1 | 25.7%
Cc1ccccc1NC(=S)N(Cc1ccco1)C(C)c1ccccn1 (centres unmarked) | 9.25%
CC(=O)Nc1ccc2nc(-c3ccccc3)cn2c1 | 15.1%
O=C(NCc1ccc(F)cc1)C(c1ccccc1)N(C(=O)c1csnn1)C1CC1 (centres unmarked) | 11%
C=CCn1c(O)c(C(CC)=NCc2cc(OC)cc(OC)c2)c(=O)[nH]c1=O | -59%
COc1cc(C(=O)NCCOc2cc(C)ccc2C(C)C)cc(OC)c1OC | -12.6%
CC1CCN(CCNC(=O)CN(C)S(=O)(=O)c2cccc3nsnc23)CC1 | -14.4%
Cc1[nH]c(=S)c(C#N)c(C)c1Cc1ccccc1 | 12.1%
Cc1cc(=O)n(C(C)(C)C)c(=O)n1Cc1ccccc1 | 11%
CCOC(=O)C1CCN(C(=O)COc2ccc(S(=O)(=O)N3CCOCC3)cc2)CC1 | 8.96%
CCOC(=O)C1=C(C)N(c2ccc(OC)cc2)C(=O)/C1=C\c1ccc(O)c(OCC)c1 | 0.519%
CC(C(=O)O)N1C(=O)c2cccc3cccc1c23 (centres unmarked) | 1.97%
CC(=O)c1c(C)[nH]c(C(=O)Nc2ccccc2Cl)c1C | -7.38%
O=C1CC(c2cccnc2)c2cc3c(cc2N1)OCCO3 (centres unmarked) | 17.2%
Cc1ccc(C(C)C)cc1OCC(=O)NNC(=O)Nc1ccccc1 | 28.3%

SMILES | hERG current change (%, negative = inhibition) at 10uM
COc1ccc(C)c(NC(=O)NCCc2cnc[nH]2)c1 | 12%
O=C(O)CCCCCN1C(=O)C(O)=C(C(=O)/C=C/c2ccccc2)C1c1cccc([N+](=O)[O-])c1 (centres unmarked) | 14.7%
Cc1cc2c(nn1)CCC/C2=N\O | 8.59%
CN(C)S(=O)(=O)c1cc(NC(=O)COC(=O)Cc2cccc3ccccc23)ccc1Cl | -2.25%
CCc1cccc(CC)c1NC(=O)COC(=O)CC1c2ccccc2CCN1S(=O)(=O)c1ccccc1 (centres unmarked) | -0.322%
COc1ccc(S(=O)(=O)N2CCN(C(=O)COc3ccccc3)CC2)cc1 | 13.5%
CCOC(=O)CN1C(=O)C(C)(C)Oc2ccc(C(=O)Nc3ccccc3OC)cc21 | -6.76%
CCOC(=O)N1CCN(CCC(=O)Nc2cccc(C)c2)CC1.Cl | 1.45%
COC(=O)c1nn(-c2ccccc2)c2nnc(Cc3ccc(C)cc3)c(=O)n12 | -7.66%
CCn1c(C)cc(/C=C2/NC(=O)N(c3ccccc3)C2=O)c1C | 18.3%
O=C(NN=C1CCCCCCC1)c1ccc2ccccc2n1 | -10.6%
COCCCNC(=S)N1CCC(NC(=O)Nc2ccc(C)cc2)CC1 | 16.1%
Cn1c(=O)c2sccc2n(Cc2ccc(Br)cc2)c1=O | 8.86%
COc1cccc(N/C=C/C(=O)c2ccc(OC)c(OC)c2)c1 | -2.77%
C/C=C(\C)C(=O)NCCN1C2=NC[C@H](Cc3ccccc3)N2C[C@@H]1Cc1ccc(OC)cc1 | -73.3%
CCc1cccc(C)c1NC(=O)CN(C)C1=NS(=O)(=O)c2ccccc21 | -2.57%
COc1ccc(NC(=O)NCc2ccccn2)cc1OC | 2.36%
CC(C)N=C1CC(C)(C)CC(=O)/C1=C(/O)CCCN1C(=O)c2ccccc2C1=O | -23.8%
CCOc1cccc(/C=C/c2cc(C(=O)O)c3ccccc3n2)c1OC | 28.8%
O=C(CCCCn1c(=S)[nH]c2ccsc2c1=O)NCc1ccc2c(c1)OCO2 | 24.7%
